# PMC4336329 (PLoS ONE, 2015)
# Out of some 310,000 compounds screened, about 14,000 (4.5%) showed an effect of 50% or more. The effect is printed as a negative number. The list shows a part of the results.
# Molecular target: human ether-à-go-go-related gene (hERG) potassium channel (human, UniProt Q12809)
# Test: primary screen, population patch clamp on CHO cells stably expressing hERG
# 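Note: peak tail current of the secondary pulse compared with the same well before compound.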
# human ether-à-go-go-related gene (hERG) potassium channel, sequence (Q12809 whole entry, looked up): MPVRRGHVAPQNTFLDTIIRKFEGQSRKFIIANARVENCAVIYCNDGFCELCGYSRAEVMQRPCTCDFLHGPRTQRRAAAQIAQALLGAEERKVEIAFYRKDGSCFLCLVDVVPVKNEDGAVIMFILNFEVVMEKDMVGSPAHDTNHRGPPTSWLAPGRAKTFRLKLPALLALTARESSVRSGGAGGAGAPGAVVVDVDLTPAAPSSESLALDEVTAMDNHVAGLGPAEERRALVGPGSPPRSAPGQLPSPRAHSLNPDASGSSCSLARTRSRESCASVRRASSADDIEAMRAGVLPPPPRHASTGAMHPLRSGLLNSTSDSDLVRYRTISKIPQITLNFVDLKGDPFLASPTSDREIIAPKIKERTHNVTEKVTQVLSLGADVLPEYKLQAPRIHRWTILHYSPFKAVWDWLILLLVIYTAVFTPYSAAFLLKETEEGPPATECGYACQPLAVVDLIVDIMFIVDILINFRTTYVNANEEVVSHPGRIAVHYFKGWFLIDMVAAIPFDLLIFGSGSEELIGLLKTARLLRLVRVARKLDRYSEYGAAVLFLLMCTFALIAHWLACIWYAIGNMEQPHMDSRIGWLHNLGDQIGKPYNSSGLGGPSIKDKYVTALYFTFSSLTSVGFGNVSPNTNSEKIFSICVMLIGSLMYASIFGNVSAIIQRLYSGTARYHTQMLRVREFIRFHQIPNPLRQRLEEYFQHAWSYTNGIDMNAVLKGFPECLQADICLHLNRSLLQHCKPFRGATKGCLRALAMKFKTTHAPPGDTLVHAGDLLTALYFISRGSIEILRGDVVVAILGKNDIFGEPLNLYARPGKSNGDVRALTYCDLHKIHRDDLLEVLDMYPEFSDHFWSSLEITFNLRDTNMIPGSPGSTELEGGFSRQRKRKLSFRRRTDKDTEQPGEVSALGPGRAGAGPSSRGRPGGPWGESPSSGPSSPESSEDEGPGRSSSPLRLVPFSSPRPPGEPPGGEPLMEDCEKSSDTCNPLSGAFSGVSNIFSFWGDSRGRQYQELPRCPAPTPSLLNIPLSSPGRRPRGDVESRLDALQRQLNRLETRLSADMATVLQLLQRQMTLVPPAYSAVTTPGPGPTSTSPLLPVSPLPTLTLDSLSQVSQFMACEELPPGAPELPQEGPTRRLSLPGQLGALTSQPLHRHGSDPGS
row,Compound,"hERG current change (%, negative = inhibition) at 10uM [%]"
1,COc1nc(-c2ccncc2)nc2ccccc12,-1.59
2,Cc1cccc(-c2nc(NCCCN(C)C)c3ccccc3n2)c1.Cl,-30
3,Cc1ccc(CNC(=O)C2CCC(=O)N(CCc3ccc(Cl)cc3)C2)cc1 (centres unmarked),-40.2
4,CCc1cc(CNC(=O)c2cccc(OC3CCN(S(C)(=O)=O)CC3)c2)on1,-70.3
5,CCOC(=O)C1(C)/C(=N/Nc2cccc(Cl)c2)C(=O)C(=O)N1c1ccccc1 (centres unmarked),6.3
6,OCCN(CCO)c1ncnc2c1sc1nc(N3CCOCC3)c3c(c12)CCCC3,-13.3
7,NC(=O)c1ccc[n+](Cc2cccc3ccccc23)c1.[Br-],13
8,CC1CCc2cc(F)ccc2N1C(=O)c1ccncc1 (centres unmarked),7.7
9,Cc1sc(NC(=O)c2ccc(F)cc2)c(CN2CCCCCC2)c1C,-22.9
10,O=C(C1CC(c2ccccc2O)=NO1)N1CCc2ccccc2C1 (centres unmarked),3.29
11,CCc1nnc(NS(=O)(=O)c2ccc(NC(=O)c3cc(Cl)ccc3OC)cc2)s1,24.8
12,CC(C)NC(=S)NNc1nc2ccccc2s1,9.59
13,O=C(CSc1ncn[nH]1)Nc1ccc(Cl)c(Cl)c1,0.453
14,Clc1ccc(Oc2ncnc3oc(-c4ccccc4)cc23)cc1,4.39
15,CCOc1ccc(NS(=O)(=O)c2ccc(C(=O)NCC(c3ccc(OC)cc3)N3CCOCC3)cc2)cc1 (centres unmarked),-12.6
16,O=C(O)CN1C(=O)c2ccc(Oc3ccc([N+](=O)[O-])cc3)cc2C1=O,23.2
17,COc1ccc(NC(=O)Cn2nnc(C(=O)Nc3ccccc3C)c2N)cc1,8.71
18,CCC(CO)NC(=O)c1ccc(-c2nn(C)c(=O)c3ccccc23)cc1 (centres unmarked),-0.0744
19,CN(C)c1ccc(CNC2CC(C)(C)NC(C)(C)C2)cc1,15.5

row,Compound,"hERG current change (%, negative = inhibition) at 10uM [%]"
1,CCC(=O)Nc1ccc(NC(=O)c2ccccn2)cn1,8.72
2,CCOc1ccccc1N1CCN(Cc2cccc(OC)c2OC)CC1,-17
3,CC(C)(C)CC(C)(C)c1ccc(O)c(CN2CCN(CCC#N)CC2)c1,13.9
4,O=C(CN1C(=O)C2CC=CCC2C1=O)Nc1nnc(SCc2ccc(F)cc2)s1 (centres unmarked),-11.4
5,CCOC(=O)c1c(N)sc(C(=O)N(CC)CC)c1C,6.82
6,Cc1cc(Cl)cc2c1NC(=O)[C@]21[C@@H]2C(=O)N(Cc3ccccc3)C(=O)[C@@H]2[C@@H]2CCCN21,-17.9
7,O=C(NCCOc1ccccc1F)c1ccccc1SCc1ccc(F)cc1,-5.72
8,CCc1c(C)nc(SCC(=O)c2ccc(C)c(C)c2)[nH]c1=O,5.78
9,Cc1cc(C(=O)N/N=C/C=C/c2ccc3c(c2)OCO3)n[nH]1,-14.6
10,O=C(Nn1cnnc1)c1ccc(F)cc1,10.8
11,COc1ccc(/C=C2\SC(=S)N(C(C)C(=O)NC3C=CS(=O)(=O)C3)C2=O)cc1 (centres unmarked),-5.61
12,C=C(C)C(=O)O[C@H]1C/C(C)=C\C(=O)/C=C(\C)[C@H](O)[C@@H]2OC(=O)C(=C)[C@@H]21,-1.92
13,CCCC1(C(=O)OCC)NC(c2ccc(OC)cc2OC)C2C(=O)N(c3ccc4c(c3)OCCO4)C(=O)C21 (centres unmarked),-0.743
14,CCN1CCc2nc(N)sc2C1,-4.7
15,O=S(=O)(c1ccc2nnn(OCc3ccccc3)c2c1)N1CCOCC1,-31.1
16,O=c1oc2ccccc2c(Nc2cccc3ccccc23)c1[N+](=O)[O-],5.56
17,COCCN(C(=O)CCC(=O)Nc1cc(C)on1)C(C(=O)NC1CCCC1)c1ccccc1F (centres unmarked),26.9
18,Cn1c(NNC(=O)c2ccc(C(C)(C)C)cc2)cc(=O)n(C)c1=O,17.3
19,COc1cc(C=NCC2OCCc3ccccc32)cc(OC)c1 (centres unmarked),8.95

row,Compound,"hERG current change (%, negative = inhibition) at 10uM [%]"
1,CCc1nn(CC(=O)Nc2ccc(Br)c(C)c2)c(=N)s1.Cl,-45.7
2,O=C(C1CCN(C2CC(=O)N(c3cccc(Cl)c3)C2=O)CC1)N1CCCCCC1 (centres unmarked),7.44
3,COc1ccc(Cl)cc1Nc1cc(C)nc2ccccc12,-73
4,COc1ccc(NC(=O)Cn2nnc(-c3ccccc3NC(=O)c3ccco3)n2)cc1,-12.8
5,COC(=O)COc1ccc2cccc(-n3cnnn3)c2c1,12.5
6,CCOCC(=O)Nc1ccc(Br)c(C)c1,4.88
7,COc1ccc(CNC(=O)CS(=O)(=O)Cc2nc(-c3ccc(OC)cc3)oc2C)cc1,-0.761
8,NC(=O)N/N=C\c1cc(Br)ccc1O,1.55
9,O=S(=O)(Nc1nc2ccccc2s1)c1ccc(Cl)s1,2.76
10,CCOC(=O)/C(=C/Nc1ccc(F)cc1)[N+](=O)[O-],14.5
11,COc1ccccc1NC(C)C(=O)N/N=C/c1ccccc1OCc1cccc(Br)c1 (centres unmarked),3.13
12,COC(=O)c1c(NC(=S)NC(=O)c2ccco2)sc2c1CCCC2,7.8
13,COc1cc(C2C(C#N)=C(C)NC3=C2C(=O)CC(C)(C)C3)ccc1OCCO (centres unmarked),13.9
14,O=C(c1cc2ccccc2cc1O)N1CCN(c2ccc([N+](=O)[O-])cc2)CC1,-40.3
15,CN(C)C(=O)COC(=O)c1cccc(CN2C(=O)c3ccccc3C2=O)c1,9.1
16,CCCCOc1ccc(S(=O)(=O)NC(=O)NCc2ccc(OCCC)cc2)cc1,1.08
17,CCCCn1c(=O)[nH]c(=O)c2c(C(=O)OCC)cc(-c3ccc(OC(F)F)cc3)nc21,14.5
18,COc1ccc(NC(=O)C2CCCN2C(=O)Nc2cccc(F)c2)cc1 (centres unmarked),-3.77
